The values that follow come from the supplement of paper PMC9446081.

In all, about 39,000 compounds went through this assay and about 220 (0.56%) showed activity. This is one part of the list.
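Note: static incubation at 37 °C against the wild-type strain, values averaged over two biological replicates.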

The test system of the test is Escherichia coli K-12 BW25113. Briefly: relative growth (OD600 normalised to plate interquartile mean) (fraction); higher = less growth inhibition, active = 0.2 or less. As to conditions: 50 µM; LB; incubation time: overnight (16-24 h).
Consider `CCS(=O)(=O)N[C@H]1CC[C@@H](CC(=O)NCc2ccccn2)O[C@H]1CO`, for which the relative growth was inactive: 1.01.

As for `C[C@H](CO)N1C[C@H](C)[C@H](CN(C)Cc2ccc(Oc3ccccc3)cc2)Oc2c(NC(=O)C3CC3)cccc2C1=O`, the relative growth was inactive: 0.95.

As to `C[C@@H]1CN([C@H](C)CO)C(=O)c2c(c3ccccc3n2C)-c2ccccc2CO[C@@H]1CN(C)Cc1ccc(Cl)c(Cl)c1`, the relative growth was inactive: 1.01.

Turning to `C[C@@H]1CCCCO[C@@H](CN(C)Cc2ccc(C(F)(F)F)cc2)[C@H](C)CN([C@H](C)CO)C(=O)c2cc(NC(=O)CCC(F)(F)F)ccc2O1`, the relative growth is inactive: 1.02.

As for `COc1ccc(S(=O)(=O)N(C)C[C@H]2Oc3ccc(NC(=O)Nc4c(C)noc4C)cc3C(=O)N([C@H](C)CO)C[C@H]2C)cc1`, the relative growth is inactive: 0.984.

On to `C[C@H](CO)N1C[C@H](C)[C@@H](CN(C)Cc2ccc(C(F)(F)F)cc2)OCCCC[C@H](C)Oc2ccc(NS(C)(=O)=O)cc2C1=O`, for which the relative growth was inactive: 0.961.

Take `C[C@H]1O[C@@H]2[C@H](O[C@@H]1C)N(S(C)(=O)=O)CCN2S(C)(=O)=O`: the relative growth is inactive: 0.995.

Take `c1cc2c(cc1-c1nn[nH]n1)OCO2`: the relative growth was inactive: 0.99.

For `CN1C(=O)c2cc(NS(=O)(=O)c3ccc(F)cc3)ccc2OC[C@H]2O[C@@H](CC(=O)NCC(F)(F)F)CC[C@@H]21`, the relative growth was inactive: 0.984.

In the case of `COc1ccc(CN(C)C[C@H]2OCCCC[C@H](C)Oc3ccc(NC(=O)NC4CCCCC4)cc3C(=O)N([C@@H](C)CO)C[C@@H]2C)cc1`, the relative growth is inactive: 1.

Take `C[C@@H]1CCCCO[C@H](CN(C)C(=O)Nc2ccc(C(F)(F)F)cc2)[C@H](C)CN([C@@H](C)CO)C(=O)c2cc(NC(=O)CCC(F)(F)F)ccc2O1`: the relative growth was inactive: 1.

Consider `C[C@@H]1CN([C@@H](C)CO)C(=O)c2cccc(NS(=O)(=O)c3ccccc3)c2O[C@H]1CN(C)S(=O)(=O)c1cn(C)cn1`, for which the relative growth is inactive: 0.992.

`COc1ccc(NC(=O)N2C[C@@H](O)COC[C@H]3O[C@H](CC(=O)NCc4ccccc4OC)CC[C@@H]32)cc1`: the relative growth is inactive: 0.971.

As for `Cc1ccc(S(=O)(=O)Nc2ccc3c(c2)C(=O)N([C@H](C)CO)C[C@H](C)[C@@H](CN(C)C(=O)Nc2ccccc2)OCCCC[C@@H](C)O3)cc1`, the relative growth is inactive: 1.01.

Turning to `Cc1cc(C(=O)Nc2cccc3c2O[C@H](CN(C)S(=O)(=O)c2cn(C)cn2)[C@H](C)CN([C@@H](C)CO)C3=O)n(C)n1`, the relative growth was inactive: 1.

As for `C[C@@H]1CCCCO[C@H](CN(C)C(=O)Nc2cccc3ccccc23)[C@@H](C)CN([C@@H](C)CO)C(=O)c2cc(NC(=O)Nc3ccc(F)cc3)ccc2O1`, the relative growth is inactive: 1.02.

As for `C[C@@H]1CCCCO[C@H](CN(C)S(=O)(=O)c2ccccc2)[C@H](C)CN([C@@H](C)CO)C(=O)c2cc(NC(=O)Nc3ccccc3)ccc2O1`, the relative growth is inactive: 1.02.

In the case of `CC(C)(C)c1cc(NC(=O)Nc2ccc(-c3cn4c(n3)sc3cc(OCCN5CCOCC5)ccc34)cc2)no1`, the relative growth is inactive: 0.961.

For the molecule `N[C@H]1CCCN(C(=O)c2cccs2)C1`, the relative growth is inactive: 0.981.

Regarding `C[C@@H]1CCCCO[C@H](CN(C)S(C)(=O)=O)[C@H](C)CN([C@@H](C)CO)C(=O)c2cc(NC(=O)Nc3cccc4ccccc34)ccc2O1`, the relative growth is inactive: 0.997.

As for `C[C@@H]1CN([C@H](C)CO)C(=O)c2cc(NC(=O)C3CCCCC3)ccc2O[C@@H](C)CCCCO[C@@H]1CN(C)Cc1ccc(C(=O)O)cc1`, the relative growth is inactive: 0.984.

For `O=C(NC1Cc2ccccc2C1)[C@H]1[C@H](CO)[C@H]2Cn3c(cccc3=O)[C@H]2N1C(=O)c1cnccn1`, the relative growth was inactive: 0.993.

As for `C[C@H]1CN([C@@H](C)CO)C(=O)c2cc(-c3cncnc3)cnc2O[C@@H]1CN(C)C(=O)Nc1ccc2c(c1)OCO2`, the relative growth is inactive: 0.982.

In the case of `C=c1nnsc1=C1NC(c2cc(C)on2)=NO1`, the relative growth was inactive: 0.968.

On to `O=c1c(O)c(-c2ccccc2)oc2ccccc12`, for which the relative growth is inactive: 1.04.

On to `CC(C)(C)c1ccc(S(=O)(=O)Nc2nccnc2-c2ccc(CNCc3ccc4c(c3)OCO4)cc2)cc1`, for which the relative growth is inactive: 0.97.

Regarding `C[C@H](CO)N1C[C@H](C)[C@@H](CN(C)C(=O)Nc2ccc(C(F)(F)F)cc2)OCCCC[C@H](C)Oc2ccc(N(C)C)cc2C1=O`, the relative growth was inactive: 0.961.

Turning to `C[C@H]1CN([C@@H](C)CO)C(=O)c2cc(C#CCN(C)C)cnc2O[C@@H]1CN(C)C(=O)Nc1ccccc1F`, the relative growth was inactive: 0.996.

For `C[C@H](CO)N1C[C@H](C)[C@@H](CN(C)Cc2ccc(C(F)(F)F)cc2)Oc2c(NC(=O)Nc3ccccc3)cccc2C1=O`, the relative growth is inactive: 0.819.

For the molecule `Cc1ccc(S(=O)(=O)Nc2ccc3c(c2)C(=O)N([C@@H](C)CO)C[C@H](C)[C@@H](CN(C)C(=O)Nc2ccc(F)cc2)OCCCC[C@@H](C)O3)cc1`, the relative growth was inactive: 0.995.

With `O=C1NCC[C@H]2[C@H]1N=C(N1CCCCC1)N2[C@H]1O[C@H](CO)[C@@H](O)[C@@H]1O`, the relative growth is inactive: 1.03.

`CN(C)CC(=O)N1CC(=O)N2[C@@H](CO)[C@H](c3ccc(C#Cc4cccnc4)cc3)[C@@H]2C1`: the relative growth is inactive: 1.02.

For `Cc1nnn(C23C[C@@H]4C[C@@H](CC(NC(=O)[C@H](N)CC(C)C)(C4)C2)C3)n1`, the relative growth was inactive: 1.

`C[C@@H]1CN([C@H](C)CO)C(=O)c2cc(NS(=O)(=O)c3cn(C)cn3)ccc2O[C@@H]1CN(C)C(=O)Nc1ccccc1`: the relative growth is inactive: 0.976.

Take `C[C@@H]1CN([C@H](C)CO)C(=O)c2cc(NS(C)(=O)=O)ccc2O[C@H]1CN(C)Cc1ccc(C(=O)Nc2ccccc2N)cc1`: the relative growth was inactive: 1.02.

Regarding `C=CCN1C(=O)[C@]2(O[C@@H](CCOC(=O)NCCCCCC(=O)NO)[C@H]([Si](C)(C)c3ccc(OC)cc3)[C@H]2C)c2cc(I)ccc21`, the relative growth was inactive: 1.03.

In the case of `CCCn1nc(C)c(CN)c1C`, the relative growth is inactive: 1.02.

As to `Cc1noc(C)c1S(=O)(=O)Nc1ccc2c(c1)C(=O)N([C@@H](C)CO)C[C@H](C)[C@@H](CN(C)C)OCCCC[C@H](C)O2`, the relative growth is inactive: 0.983.

Consider `C[C@@H]1CN([C@@H](C)CO)C(=O)CCCn2nncc2CO[C@@H]1CN(C)C(=O)c1ccc(N2CCN(C)CC2)cc1`, for which the relative growth is inactive: 0.987.
